In the supplement of paper PMC6531468:
The other results are listed elsewhere or left out. Read counts after selection give these values, which scatter widely. Each score is taken over the longer molecules that contain the sequence shown.

The sequences below were run against IMP3 full-length (UniProt O00425) (assay: 6-mer SELEX enrichment z-score vs GST control; IMP3 is the RNA-binding protein IGF2BP3; higher = more enriched by binding). Conditions: construct: FL IMP3 (1-579); SELEX round: R4.
Method: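 SELEX-seq with GST-tagged full-length IMP3 and an N40 RNA pool, round 4. Each 6-mer is scored as an enrichment z-score of sequence tags containing it, normalised to the matching GST SELEX round. RNA written as DNA (T = U).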

Sequence of UniProt O00425 (O00425 whole entry): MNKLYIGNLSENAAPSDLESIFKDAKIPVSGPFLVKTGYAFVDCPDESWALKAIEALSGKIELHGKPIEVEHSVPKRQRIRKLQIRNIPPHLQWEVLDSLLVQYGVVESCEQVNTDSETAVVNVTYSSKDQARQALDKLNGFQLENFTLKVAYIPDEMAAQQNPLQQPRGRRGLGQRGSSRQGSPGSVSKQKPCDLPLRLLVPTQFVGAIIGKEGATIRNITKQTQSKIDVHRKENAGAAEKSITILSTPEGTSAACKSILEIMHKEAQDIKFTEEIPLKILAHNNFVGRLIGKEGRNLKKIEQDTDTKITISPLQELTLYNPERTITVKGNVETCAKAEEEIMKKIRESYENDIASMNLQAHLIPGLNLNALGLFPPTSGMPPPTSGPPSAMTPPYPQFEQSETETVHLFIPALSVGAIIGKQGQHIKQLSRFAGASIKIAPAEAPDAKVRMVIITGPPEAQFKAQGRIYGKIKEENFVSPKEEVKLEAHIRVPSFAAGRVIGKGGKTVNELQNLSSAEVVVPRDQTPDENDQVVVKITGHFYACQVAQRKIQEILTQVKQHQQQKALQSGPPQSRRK

| Sequence | 6-mer SELEX enrichment z-score |
| --- | --- |
| ATGTTA | -0.117 |
| AAATAT | -0.33 |
| CTAGGT | 0.071 |
| GTTCTT | 0.172 |
| GAAGTC | 0.11 |
| TTGACC | -1.04 |
| CACTCG | -0.009 |
| TATAGG | 0.344 |
| GGCAAT | 1.32 |
| AGGATC | 0.162 |
| GAGTCC | 0.114 |
| CGGAGA | -0.185 |
| CGCCGC | 0.592 |
| TCTCAC | 0.273 |
| CACAGG | 2.12 |
| TCGCAA | 0.138 |
| ACTCGA | -1.17 |
| AAACTT | -1.04 |
| GCGCTA | -0.019 |
| CTATTT | 0.27 |

| Sequence | 6-mer SELEX enrichment z-score |
| --- | --- |
| ACAGCA | 2.27 |
| GGCGAA | 0.352 |
| CAGCGG | 1.2 |
| CTCTTC | 0.101 |
| GGTTCG | 0.206 |
| ATTCAA | 1.19 |
| GCTCAG | 0.512 |
| GTCTGA | -0.166 |
| AGGAAG | 0.115 |
| TGCACG | 0.702 |
| ATACAG | 1.5 |
| ACGAAT | -0.58 |
| CTGGGC | 0.136 |
| AAGGCT | 0.127 |
| CGTGAT | -0.222 |
| CATCCC | 0.509 |
| CGCACG | 0.904 |
| GGCCCT | 0.278 |
| TAAATC | -0.197 |
| CAAAAC | -1.42 |
